This note sets out measurements from PubChem BioAssay AID463173 (ICCB-Longwood Screening Facility, Harvard Medical School, 2010).

The structures appear in SMILES notation. Among all 52,000 compounds or so, about 1,700 (3.3%) were called active. Rule as the data show it: active = survival mostly below about 52% (no sharp cut-off); inactive = mostly above about 56%. The list shows a part of the results.

For the assay, the system named is Wild type. The experiment in a line: growth inhibition of S. aureus wild type versus tarO mutant, primary screen, teichoic acid synthesis inhibitors, RN4220, OD600 (AID 463173). Conditions: S. aureus RN4220 wild type/DeltatarO growth, OD600, 18 h, active compounds read low, screened at 18.75 µg/mL (by protocol).
Consider `O=C(NCCCN1CCN(c2ccc(F)cc2)CC1)c1ccc2nc(Cc3ccccc3)oc2c1`, for which the survival was inactive: 82%.

On to `CCOc1ccc(CN2CCc3nc(Nc4ccc(OC)cc4OC)ncc3C2)cc1`, for which the survival is inactive: 71%.

Take `Cc1ccc2sc(NC(=O)c3ccc4c(c3)OCCO4)nc2c1C`: the survival was inactive: 69%.

For the compound `COc1ccc2c(c1)c1c(c(=O)n(-c3ccc(F)c(Cl)c3)c(=O)n1Cc1ccccc1C)n2C`, the survival is inactive: 73%.

For the compound `COc1ccc(NC(=O)c2c(-c3ccc(C)cc3)nnc3ccccc23)c(OC)c1`, the survival was inactive: 71%.

As to `CCN(CC)c1nc2ccccc2nc1C(=O)Nc1cccc(C(C)=O)c1`, the survival was inactive: 102%.

`COc1ccc2c(c1)c1c(c(=O)n(CCc3ccccc3)c(=O)n1Cc1ccc(F)cc1)n2C`: the survival is active: 1%.

`CCN(CC)CCCNC(=O)c1nn(C)c2c1CS(=O)(=O)c1ccccc1-2`: the survival was inactive: 84%.

In the case of `Cc1ccccc1Cn1c(CN2CCC(C(=O)NCCc3ccccc3)CC2)cc2ccccc21`, the survival was inactive: 110%.

Take `CCC(=O)Nc1cccc(C(=O)OCc2cc(=O)n3nc(CC)sc3n2)c1`: the survival was inactive: 72%.

Turning to `CCSC1=NC2(CCN(C(=O)NC3CCCCC3)CC2)N=C1c1ccc(Cl)cc1`, the survival was inactive: 97%.

On to `CCn1c(O)c(/C=C/c2nc3ccccc3n2CC)sc1=S`, for which the survival was inactive: 108%.

As for `O=c1[nH]cnc2c1[nH]c1ccccc12`, the survival was inactive: 106%.

`Cc1ccc(NC(=O)c2sc3nc4c(cc3c2N)CN(Cc2ccccc2)CC4)cc1`: the survival was inactive: 93%.

Take `Nc1ccc(N2CCCC2)cc1`: the survival is inactive: 115%.

Turning to `CCN1C(=O)c2ccccc2Sc2ccc(NC(=O)c3ccc(Cl)cc3)cc21`, the survival is inactive: 89%.

As for `Cc1oc2ncn(C)c(=O)c2c1C(=O)N1CCN(c2ccccc2F)CC1`, the survival is inactive: 86%.

As for `CCc1nn(Cc2ccc(Cl)cc2)c(=O)c2cc3cc(C)ccc3n12`, the survival is inactive: 86%.

In the case of `Cc1cc(C)nc(NC(C)(C)C(=O)O)n1`, the survival is inactive: 104%.

On to `CCc1cc2c(NCCN3CCCCC3)ncnc2s1`, for which the survival was inactive: 106%.

For `O=C(CSc1ncc2c(n1)-c1ccc(Cl)cc1N(Cc1ccccc1)S2(=O)=O)Nc1ccc(F)c(F)c1`, the survival was inactive: 129%.

With `COc1ccc2c(Sc3ccccc3)c(C(=O)NCCc3ccc(Cl)cc3)[nH]c2c1`, the survival was inactive: 117%.

Regarding `O=C(CN1C(=O)COc2ccc(S(=O)(=O)N3CCCC3)cc21)N1CCN(c2ccccc2)CC1`, the survival was inactive: 89%.

Take `CCN1CCN(CCCNC(=O)c2cc3c(s2)-c2ccccc2OC3)CC1`: the survival was inactive: 84%.

Consider `COc1cc(OC)cc(C(=O)Nc2cc(-c3nc4cc(Cl)ccc4o3)ccc2Cl)c1`, for which the survival is inactive: 67%.

Consider `CCOC(=O)C1CCCN(CC(=O)N2CCCc3c2c(=O)oc2ccc(OCc4ccccc4)cc32)C1` (configuration not stated), for which the survival is inactive: 103%.

Turning to `Cc1cccc2cc(CN(CCO)S(=O)(=O)c3ccc(Cl)cc3)c(=O)[nH]c12`, the survival was inactive: 112%.

Regarding `CCc1ccc(NC(=O)c2sc3ncnc(N(C)C4CCCCC4)c3c2C)cc1`, the survival is inactive: 95%.

For `O=C(NCc1ccc2c(c1)CCN2C(=O)c1ccccc1)c1cc2ccccc2[nH]1`, the survival was active: 1%.

Turning to `CN1CCc2nc3sc(C(=O)c4ccc5c(c4)OCO5)c(N)c3cc2C1`, the survival is inactive: 116%.

Take `CC1(C)Cc2c(c(N3CCOCC3)nc3oc(C(=O)c4ccccc4)c(N)c23)CO1`: the survival was inactive: 107%.

With `CCOc1ccc(C2C(C(N)=O)=C(C)Nc3nc(SCc4ccccc4)nn32)cc1` (configuration not stated), the survival was inactive: 89%.

Turning to `COc1ccc(CNC(=O)Nc2ccc3c(c2)N(C)C(=O)c2ccccc2S3)cc1`, the survival was inactive: 113%.

`CC(=O)C1=C(c2ccc(C)cc2)N(C(C)=O)n2c(nnc2C2CCCCC2)S1`: the survival is inactive: 73%.

On to `CCCCNC(=O)CSc1nc2ccccc2nc1Cc1ccc(C)cc1`, for which the survival is inactive: 72%.

`COc1ccc(-c2nnc(SCc3cc(=O)c4cc(C)cc(C)c4[nH]3)n2C)cc1`: the survival is inactive: 126%.

`COc1cccc(CN2C(=O)c3ccccc3Sc3ccc(C(=O)N(C)Cc4ccccc4)cc32)c1`: the survival is inactive: 93%.

For `O=C(NCc1ccco1)C12CC3CC(CC(C3)C1)C2`, the survival was inactive: 103%.

As for `COc1cccc2cc(-c3nc(Nc4cccc(C)c4)sc3C)c(=O)oc12`, the survival was inactive: 68%.

In the case of `O=C(c1cccs1)c1cn(CCOc2ccccc2F)c2ccccc12`, the survival is inactive: 75%.

Regarding `COc1cccc(CNC(=O)c2ccc3nc(-c4ccc(F)cc4)c(-c4ccc(F)cc4)nc3c2)c1`, the survival is inactive: 125%.

`CC(=O)c1cccc(NC(=O)c2nc3ccccc3n(C)c2=O)c1`: the survival is inactive: 114%.

Turning to `COc1cc(C2c3c(-c4ccccc4O)n[nH]c3C(=O)N2CCO)ccc1OCc1ccccc1` (configuration not stated), the survival is inactive: 89%.

As to `CC(C)c1ccc(S(=O)(=O)c2nnn3c2nc(N2CCN(C)CC2)c2sccc23)cc1`, the survival was inactive: 76%.

For `CCOC(=O)c1ccccc1NC(=O)c1c2c(nc3ccccc13)C(=O)N(C1CCCCC1)C2`, the survival was inactive: 78%.

In the case of `CCOc1ccc(CNC(=O)C2CCN(S(=O)(=O)N3CCC(C)CC3)CC2)cc1OC`, the survival is inactive: 84%.

On to `CC1=C(C(=O)Nc2cccnc2)C(c2cccc(Br)c2)n2nc(SCc3ccccc3)nc2N1` (configuration not stated), for which the survival is inactive: 60%.

As to `COc1ccc(C(=O)Nc2nc3nc(C)c(Cc4ccccc4)c(=O)n3[nH]2)cc1OC`, the survival was inactive: 95%.

Consider `Cc1ccc(CNC(=O)COCc2cc(-c3cccs3)on2)cc1`, for which the survival was inactive: 88%.

For the compound `CCCn1c(SCc2nc3ccccc3[nH]2)nc2ccccc21`, the survival is inactive: 114%.

For the compound `CC(=O)c1cccc(NC(=O)CN2C=NS(=O)(=O)c3ccc(C)cc32)c1`, the survival was inactive: 71%.

With `COc1cc(NC(=O)C2CCN(c3cnc4ccccc4n3)CC2)cc(OC)c1OC`, the survival was active: -6%.

Regarding `CCCc1cc(=O)n2[nH]c(NC(=O)c3ccc(C(C)(C)C)cc3)nc2n1`, the survival was inactive: 114%.

On to `Cc1cccc(CNS(=O)(=O)c2ccc(-c3cnc(C4CC4)o3)cc2)c1`, for which the survival is inactive: 64%.

`CC1=C(C(=O)Nc2ccccc2C)C(c2ccncc2)n2nc(SCc3ccccc3Cl)nc2N1` (configuration not stated): the survival is inactive: 86%.

On to `c1cc(CNC2CCCCC2)co1`, for which the survival was inactive: 106%.

As for `CCn1c(=O)c2cc(C(=O)Nc3cc(OC)c(OC)c(OC)c3)sc2c2ccccc21`, the survival is inactive: 78%.
